Measurements: publication PMC4336329 (PLoS ONE, 2015)
Out of some 310,000 compounds screened, about 14,000 (4.5%) showed an effect of 50% or more. Effects have a minus sign here. Some of the results follow.

The compounds below were run against human ether-à-go-go-related gene (hERG) potassium channel (human, UniProt Q12809) (assay: primary screen, population patch clamp on CHO cells stably expressing hERG).
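Also: peak tail current of the secondary pulse compared with the same well before compound.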

Chain of human ether-à-go-go-related gene (hERG) potassium channel (Q12809 whole entry, looked up): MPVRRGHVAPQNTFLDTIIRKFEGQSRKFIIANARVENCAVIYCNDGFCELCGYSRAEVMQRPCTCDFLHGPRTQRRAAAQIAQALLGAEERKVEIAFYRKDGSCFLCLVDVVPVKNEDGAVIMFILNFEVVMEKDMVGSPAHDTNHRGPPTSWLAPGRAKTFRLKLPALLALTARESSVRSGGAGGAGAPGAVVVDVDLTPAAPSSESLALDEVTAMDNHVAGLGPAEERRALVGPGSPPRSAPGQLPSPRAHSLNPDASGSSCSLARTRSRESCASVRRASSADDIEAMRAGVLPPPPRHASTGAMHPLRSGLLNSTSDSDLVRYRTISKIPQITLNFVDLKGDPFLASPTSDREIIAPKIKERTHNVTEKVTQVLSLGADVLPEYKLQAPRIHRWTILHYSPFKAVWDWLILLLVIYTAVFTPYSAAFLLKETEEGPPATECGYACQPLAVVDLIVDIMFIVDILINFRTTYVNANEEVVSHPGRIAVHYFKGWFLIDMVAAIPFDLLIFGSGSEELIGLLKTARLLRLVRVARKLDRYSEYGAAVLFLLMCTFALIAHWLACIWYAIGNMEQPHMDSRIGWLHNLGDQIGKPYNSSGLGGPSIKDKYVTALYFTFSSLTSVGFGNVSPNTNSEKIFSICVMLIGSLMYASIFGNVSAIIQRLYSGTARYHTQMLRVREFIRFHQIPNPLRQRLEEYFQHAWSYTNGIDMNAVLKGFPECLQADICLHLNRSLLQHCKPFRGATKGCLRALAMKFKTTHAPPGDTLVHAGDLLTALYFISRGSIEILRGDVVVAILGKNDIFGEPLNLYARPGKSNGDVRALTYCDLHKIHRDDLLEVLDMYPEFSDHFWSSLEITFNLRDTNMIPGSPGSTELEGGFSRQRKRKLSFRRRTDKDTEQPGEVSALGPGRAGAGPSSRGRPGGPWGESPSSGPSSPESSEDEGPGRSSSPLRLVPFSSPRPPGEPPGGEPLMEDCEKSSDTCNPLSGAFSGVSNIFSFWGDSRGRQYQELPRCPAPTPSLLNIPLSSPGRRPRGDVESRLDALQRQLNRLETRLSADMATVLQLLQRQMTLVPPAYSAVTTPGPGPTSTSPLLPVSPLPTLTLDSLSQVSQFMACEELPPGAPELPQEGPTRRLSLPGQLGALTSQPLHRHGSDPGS

Point of comparison: `CN(C)c1ccc(-c2nnc(-c3cccnc3)o2)cc1`, “hERG current change (%, negative = inhibition) at 10uM” value 7.04%. Against it:
- CCOC(=O)c1sc(CS(=O)(=O)c2ccc(Cl)cc2)nc1C — lower, -9.81%
- CCCCNC(=S)NCc1ccc2[nH]c3c(c2c1)CCCC3 — lower, -1.58%
- CCOc1cc(/C=N/NC(=O)C(C)Sc2ccccc2)ccc1O (stereo not drawn) — lower, -5.93%
- O=C(Nc1ccccc1)Nc1cnccn1 — higher, 24.1%
- CS(=O)(=O)N1CCN(C(=O)NC23CC4CC(CC(C4)C2)C3)CC1 — lower, 5.59%
- CCOC(=O)c1[nH]c(C)c(C(=O)Nc2ccc(C)c(C)c2)c1C — higher, 14.6%
- O=C(Nc1cccnc1)c1ccc2ccccc2c1O — lower, 3.64%
- COn1c(=O)c(-c2cccc(Br)c2)[n+]([O-])c2ccccc21 — higher, 12.8%
- COC(=O)c1cccnc1-n1c(=O)c2cccnc2n(Cc2cccc(C(F)(F)F)c2)c1=O — lower, -20.6%
- Cn1c(C(=O)N2CCCC(C(=O)c3ccc(C(F)(F)F)cc3)C2)cc(=O)n(C)c1=O (stereo not drawn) — lower, -71.7%
- CCO.NCCc1c[nH]c2ccc(C(N)=O)cc12.O=C([O-])/C=C\C(=O)[O-] — higher, 11.6%
- O=C(NCc1ccc(Cl)cc1)N1CCOCC1 — higher, 16.2%
- O=C(NCCS(=O)(=O)N1CCN(c2ccc(F)cc2)CC1)C12CC3CC(CC(C3)C1)C2 — lower, -10.5%
- CC1=C([N+](=O)[O-])C(c2ccccc2)C2=C(N1)c1ccccc1C2=O (stereo not drawn) — lower, 3.48%
- O=C(Nc1ccc(F)cc1)c1ccc(-n2cncn2)c([N+](=O)[O-])c1 — lower, -18.9%
- O=C(CCC(=O)N1CCSc2ccccc21)NCCc1ccccc1 — lower, -30.5%
- CCN(CC)C(=O)CSC1=Nc2ccccc2C2=NC(Cc3c[nH]c4ccccc34)C(=O)N12 (stereo not drawn) — lower, -16.2%
- Cc1c(C(=O)NC2CCCc3ccccc32)cccc1[N+](=O)[O-] (stereo not drawn) — higher, 12.9%
- CCNC(=S)Nc1cccc(Cl)c1C — lower, -12.9%
- COc1ccc(/C=C/C(=O)OCC(=O)Nc2ccc(Cl)cc2F)cc1S(=O)(=O)N1CCOCC1 — lower, 1.6%
- O=C(/C=C/c1ccccc1)NCCc1cnc[nH]1 — lower, -5.14%
- Cc1ccc(C2NNC(=O)C2NC(=O)c2ccccc2)cc1 (stereo not drawn) — higher, 19.1%
- COc1cc(C(=O)Nc2ccc(Nc3ccccc3)cc2)cc(OC)c1OC — lower, 1.07%
- O=C(O)c1cc(S(=O)(=O)N2CCCCCC2)ccc1Cl — higher, 20%
- CCOc1ccccc1NC(=S)N1CCC(NC(=O)C(C)(C)C)CC1 — higher, 25.6%
- O=c1c2ccccc2nc(Cc2ccccc2)n1-c1cccc(O)c1 — lower, -31.5%
- O=c1[nH]c(C2CCCN(S(=O)(=O)c3ccccc3)C2)nc2c1nnn2Cc1ccccc1F (stereo not drawn) — lower, -3.27%
- CCCC(=O)NC(c1ccccc1Cl)c1c(O)ccc2ccccc12 (stereo not drawn) — higher, 10.8%
- O=C1CN(C(=O)/C=C/c2ccco2)c2ccccc2N1 — lower, -28.6%
- Cc1[nH]c2ccc(OC(F)(F)F)cc2c1CCNCc1cccc([N+](=O)[O-])c1 — lower, -25.4%
- Cc1ccn(-c2n[nH]c(C)c2[N+](=O)[O-])n1 — higher, 15.6%
- O=C(c1ccc(Cl)cc1)c1c[nH]c(C(=O)NNc2ccccc2)c1 — lower, -4.74%
- CC(C)N(C(=O)C1CC(=O)OC12CCCCC2)C(C)C (stereo not drawn) — lower, -14.6%
- CCN1CCN(c2ncnc3scc(-c4ccc(OC)cc4)c23)CC1 — lower, -54.6%
- CCOc1ccc(N2CC(C(=O)Nc3nnc(CC)s3)CC2=O)cc1 (stereo not drawn) — lower, -53.6%
- CN(C)Cc1c(C(=O)N/N=C/c2ccco2)nnn1-c1nonc1N — lower, -18.2%
- CCCN(CCC)S(=O)(=O)c1ccc(NS(=O)(=O)c2ccc(F)cc2)cc1 — lower, 5.18%
- Cc1ccsc1/C=N/NC(=O)CNC(=O)c1c(F)cccc1Cl — higher, 21.2%
- COc1ccc(C2=NNC(c3cccs3)=Nc3ccc(OC)cc32)cc1 — lower, 6.92%
- COCCN(C(=O)C1CC(=O)N(Cc2ccccc2)C1)c1nc(-c2ccc([N+](=O)[O-])cc2)cs1 (stereo not drawn) — lower, -29.7%
- Cc1cc(Nc2cccc(Cl)c2C)n2ncnc2n1 — lower, 0.621%
- Cc1cc(NS(=O)(=O)c2ccc(NC(=O)COc3c(C)cc(Br)cc3C)cc2)no1 — higher, 12.5%
- COc1ccc(CN(Cc2ccco2)S(=O)(=O)c2ccc(S(=O)(=O)N3CCCC3)cc2)cc1 — lower, 0.256%
- O=S(=O)(Nc1ccc(F)cc1)c1cccc2nsnc12 — lower, 3.96%
